In the antibiotic and cytotoxicity screens of Wong et al. (2023):
The other results are listed elsewhere or left out.

What was measured:
HSkMC = human skeletal muscle cells; assay: cytotoxicity call (relative viability < 0.9); details: 10 µM
HepG2 = assay: cytotoxicity call (relative viability < 0.9); details: 10 µM
S. aureus RN4220 = assay: growth inhibition call (relative growth <= 0.2); details: 50 µM

SMILES	cytotoxicity call (HSkMC)	cytotoxicity call (HepG2)	growth inhibition call (S. aureus RN4220)
CNC(=O)N1CCC(C(N)=O)CC1	inactive	inactive	inactive
NNC(=O)[C@H]1C[C@H]2C[C@@H]1C[C@@H]2C(=O)NN	inactive	inactive	inactive
COc1ccccc1S(=O)(=O)N[C@@H]1CC[C@@H](CCNC(=O)C2CC2)O[C@@H]1CO	inactive	inactive	inactive
COc1ccc(-c2oc3c(CC=C(C)C)c(O[C@@H]4O[C@H](CO)[C@@H](O)[C@H](O)[C@H]4O)cc(O)c3c(=O)c2O[C@@H]2O[C@@H](C)[C@H](O)[C@@H](O)[C@H]2O)cc1	active	inactive	inactive
C[C@H](CO)N1C[C@H](C)[C@@H](CN(C)S(=O)(=O)c2cn(C)cn2)Oc2cc(C#Cc3cccc(F)c3)ccc2S1(=O)=O	inactive	inactive	inactive
C[C@@H]1CCCCO[C@@H](CN(C)Cc2ccc(C(F)(F)F)cc2)[C@@H](C)CN([C@H](C)CO)C(=O)c2cc(NC(=O)c3ccncc3)ccc2O1	inactive	inactive	inactive
CNC(=O)[C@@H](NC(=O)[C@H](CC(C)C)[C@H](O)C(=O)NO)C(C)(C)C	inactive	inactive	inactive
C[C@@H]1CN([C@@H](C)CO)C(=O)Cc2cc(NS(=O)(=O)c3cn(C)cn3)ccc2O[C@H]1CN(C)CC1CC1	inactive	inactive	inactive
COc1ccc(S(=O)(=O)Nc2ccc3c(c2)C(=O)N([C@@H](C)CO)C[C@H](C)[C@@H](CN(C)S(=O)(=O)c2cn(C)cn2)O3)cc1	inactive	inactive	inactive
CN(C)C(=O)C[C@@H]1C=C[C@H](NC(=O)C2CC2)[C@H](CO)O1	inactive	inactive	inactive
CN([NH2+][O-])C(=O)N[C@@H]1[C@@H](O)[C@H](O)[C@@H](CO)O[C@@H]1O	inactive	inactive	inactive
CCS(=O)(=O)NCC[C@@H]1CC[C@@H](NS(=O)(=O)c2cccc(F)c2)[C@H](CO)O1	inactive	inactive	inactive
C[C@@H]1CN([C@H](C)CO)C(=O)CCCn2cc(nn2)CO[C@@H]1CN(C)C(=O)Nc1ccc2c(c1)OCO2	inactive	inactive	inactive
CCS(=O)(=O)NCC[C@@H]1CC[C@H](NS(=O)(=O)c2ccccc2C)[C@H](CO)O1	inactive	inactive	inactive
Cc1cc(=O)oc2cc(O[C@H]3O[C@@H](CO)[C@@H](O)[C@@H](O)[C@@H]3O)ccc12	inactive	inactive	inactive
Cc1ccc(S(=O)(=O)Nc2ccc3c(c2)CC(=O)N([C@@H](C)CO)C[C@H](C)[C@H](CN(C)Cc2ccncc2)O3)cc1	inactive	inactive	inactive
Nn1c(C(F)(F)F)n[nH]c1=S	inactive	inactive	inactive
O=C(C1=C[C@@H](c2ccc3c(c2)OCO3)C[C@@H](OCCCCO)O1)N1CCN(Cc2ccc3c(c2)OCO3)CC1	inactive	inactive	inactive
CC=Cc1ccc2n(c1=O)C[C@@H]1[C@@H](CO)[C@H](C(=O)NCC3CC3)[C@H]2N1S(=O)(=O)c1cn(C)cn1	inactive	inactive	inactive
CN1C(=O)c2cc(NC(=O)Cc3cccs3)ccc2OC[C@H]2O[C@H](CC(=O)NCCCN3CCOCC3)CC[C@@H]21	inactive	inactive	inactive

SMILES	cytotoxicity call (HSkMC)	cytotoxicity call (HepG2)	growth inhibition call (S. aureus RN4220)
COc1ccc(NC(=O)Nc2ccc3c(c2)CC(=O)N([C@@H](C)CO)C[C@@H](C)[C@H](CN(C)C(=O)Nc2ccc(C(F)(F)F)cc2)O3)cc1	inactive	inactive	inactive
COc1ccccc1NC(=O)N(C)C[C@@H]1OCc2ccccc2-c2c(n(C)c3ccccc23)C(=O)N([C@H](C)CO)C[C@H]1C	inactive	inactive	inactive
CC(C)(C)OC(=O)C[C@@H]1CC=CC[C@@H](CC(=O)N[C@@H](CO)Cc2ccccc2)C(=O)N[C@@H](C(C)(C)C)COC1=O	inactive	inactive	inactive
CSc1cc(-c2ccc(Cl)cc2)nc(-c2cccs2)c1	inactive	inactive	inactive
COc1ccc(NC(=O)N(C)C[C@H]2OCCCC[C@@H](C)Oc3ccc(NC(=O)CCC(F)(F)F)cc3C(=O)N([C@@H](C)CO)C[C@@H]2C)cc1	inactive	inactive	inactive
C[C@@H]1CCCCO[C@@H](CN(C)C(=O)Nc2ccc(F)cc2)[C@H](C)CN([C@@H](C)CO)C(=O)c2cc(NC(=O)C3CCCCC3)ccc2O1	inactive	inactive	inactive
Cn1cnc(S(=O)(=O)N2C[C@H](O)COC[C@H]3O[C@H](CC(=O)NC4CCCC4)CC[C@@H]32)c1	inactive	inactive	inactive
C[C@H](CO)N1C[C@H](C)[C@H](CN(C)C(=O)Nc2ccccc2)OCCCC[C@H](C)Oc2ccc(NC(=O)NC3CCCCC3)cc2C1=O	inactive	inactive	inactive
C[C@H](O)C#Cc1ccc2c(c1)O[C@H](CN(C)C(=O)C1CCCCC1)[C@@H](C)CN([C@@H](C)CO)S2(=O)=O	inactive	inactive	inactive
COc1ccc2c3c(n(c2c1)C)[C@@H](CO)N(C[C@]13CCN(CC1)C(=O)c1ccccc1F)C(=O)Nc1ccc(cc1)F	inactive	inactive	inactive
CCN(CC)c1nc(C#N)nc(OC)n1	inactive	inactive	inactive
CNC(=O)CN(CCN(CCN(CC(=O)[O-])CC(=O)NC)CC(=O)[O-])CC(=O)[O-].[Gd]	inactive	inactive	inactive
CCCC(=O)Nc1ccc2c(c1)C(=O)N(C)C[C@H](OC)[C@H](C)CN(S(=O)(=O)c1cn(C)cn1)[C@@H](C)CO2	inactive	inactive	inactive
CNC(=O)C[C@@H]1CC[C@H]2[C@@H](COC[C@@H](O)CN2C(=O)c2ccc3c(c2)OCO3)O1	inactive	inactive	inactive
Nc1ncnc2c1ncn2[C@H]1CC[C@@H](CO)O1	inactive	inactive	inactive
COc1c(-c2ccccc2)oc2c(ccc3ccoc32)c1=O	inactive	inactive	inactive
COc1ccc(S(=O)(=O)N(C)C[C@H]2OCCCC[C@@H](C)Oc3ccc(NC(=O)CCCCCC(=O)Nc4ccccc4N)cc3C(=O)N([C@H](C)CO)C[C@@H]2C)cc1	inactive	inactive	inactive
O=C(C[C@H]1C[C@@H]2c3cc(NS(=O)(=O)c4ccc(F)cc4)ccc3O[C@@H]2[C@@H](CO)O1)N1CCOCC1	inactive	inactive	inactive
Cc1noc(C)c1S(=O)(=O)Nc1ccc2c(c1)C(=O)N([C@H](C)CO)C[C@@H](C)[C@H](CN(C)C(=O)Nc1ccc(F)cc1)OCCCC[C@@H](C)O2	inactive	inactive	inactive
C[C@H]1CN([C@@H](C)CO)C(=O)c2cccc(NC(=O)c3ccncc3)c2O[C@@H]1CN(C)C(=O)Nc1ccc2c(c1)OCO2	inactive	inactive	inactive

SMILES	cytotoxicity call (HSkMC)	cytotoxicity call (HepG2)	growth inhibition call (S. aureus RN4220)
C[C@@H]1CN([C@H](C)CO)C(=O)c2cccc(NC(=O)c3ccc(-c4nccs4)cc3)c2O[C@H]1CN(C)Cc1ccc(-c2ccccc2)cc1	inactive	inactive	inactive
NC(CCC(=O)NC(CS)C(=O)NCC(=O)O)C(=O)O (centres undefined)	inactive	inactive	inactive
C[C@H](CO)N1C[C@H](C)[C@@H](CN(C)C(=O)CN(C)C)Oc2ncc(C#CC3(O)CCCC3)cc2C1=O	inactive	inactive	inactive
COc1ccc2c3c([nH]c2c1)[C@H](CO)N(Cc1ccc(cc1)Cl)C[C@]13CN(CCc2ccccc2)C1	active	active	active
C[C@@H]1CN([C@H](C)CO)C(=O)Cc2cc(NS(C)(=O)=O)ccc2O[C@@H]1CN(C)S(=O)(=O)c1ccc(Cl)cc1	inactive	inactive	inactive
C[C@@H]1CN([C@H](C)CO)C(=O)c2cc(NC(=O)C3CCCCC3)ccc2O[C@@H](C)CCCCO[C@@H]1CN(C)C(=O)Nc1ccccc1	inactive	inactive	inactive
O=S(=O)(O)c1cc(O)ccc1O	inactive	active	inactive
C[C@H](CO)N1C[C@H](C)[C@H](CN(C)Cc2ccc(C(=O)O)cc2)OCCCC[C@H](C)Oc2ccc(NC(=O)Nc3ccccc3)cc2C1=O	inactive	inactive	inactive
N=C(N)c1ccc2nc(-c3cc(CC(=O)N[C@@H](CC(=O)O)C(=O)O)cc(-c4cc(S(N)(=O)=O)ccc4O)c3O)[nH]c2c1	inactive	inactive	inactive
O=C(O)C[C@H]1CC[C@H]2[C@@H](COC[C@@H](O)CN2S(=O)(=O)c2ccc(F)cc2)O1	inactive	inactive	inactive
C[C@@H]1CN([C@@H](C)CO)C(=O)c2cc(NC(=O)CCCN(C)C)ccc2O[C@H]1CN(C)S(=O)(=O)c1ccc(F)cc1	inactive	inactive	inactive
CO[C@@H]1CN(C)C(=O)c2cc(NC(=O)C3CC3)ccc2OC[C@@H](C)N(C(=O)CN2CCOCC2)C[C@H]1C	inactive	inactive	inactive
CCC(=O)N1C[C@]2(C1)CN([C@H](CO)c1[nH]c3cc(ccc3c12)OC)S(=O)(=O)C	inactive	inactive	inactive
O=C1CNC(=S)N1CCc1ccccc1	inactive	inactive	inactive
C=CCSc1nc(=O)cc(N)[nH]1	inactive	inactive	inactive
C[C@@H]1CN([C@@H](C)CO)C(=O)Cc2cc(NC(=O)Nc3ccc4c(c3)OCO4)ccc2O[C@H]1CN(C)Cc1ccc(C(F)(F)F)cc1	inactive	inactive	inactive
Cc1ccc(S(=O)(=O)Nc2ccc3c(c2)C(=O)N([C@H](C)CO)C[C@@H](C)[C@@H](CN(C)C(=O)NC2CCCCC2)OCCCC[C@H](C)O3)cc1	inactive	inactive	inactive
C[C@H](CO)N1C[C@H](C)[C@H](CN(C)Cc2ccc(C(=O)O)cc2)Oc2ccc(NC(=O)CCN3CCOCC3)cc2C1=O	inactive	inactive	inactive
